Experiments:
[1] = target: T1, human MAdCAM expressed on cells (human, UniProt Q13477 19-382); assay: cell binding
T1 construct: whole, on cells; also called MADCAM1
T1 sequence (looked up): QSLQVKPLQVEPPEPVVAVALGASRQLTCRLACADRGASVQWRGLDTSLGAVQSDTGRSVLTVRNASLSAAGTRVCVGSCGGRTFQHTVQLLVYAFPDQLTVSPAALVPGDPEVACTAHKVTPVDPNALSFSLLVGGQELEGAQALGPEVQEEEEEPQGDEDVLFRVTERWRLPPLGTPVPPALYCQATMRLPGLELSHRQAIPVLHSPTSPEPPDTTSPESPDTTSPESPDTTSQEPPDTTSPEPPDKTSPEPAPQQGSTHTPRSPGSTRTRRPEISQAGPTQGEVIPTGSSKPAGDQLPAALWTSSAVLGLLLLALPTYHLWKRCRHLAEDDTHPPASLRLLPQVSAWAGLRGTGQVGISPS

[2] = target: T2, mouse MAdCAM expressed on cells (mouse, UniProt Q61826 22-405); assay: cell binding
T2 construct: whole, on cells
T2 sequence (looked up): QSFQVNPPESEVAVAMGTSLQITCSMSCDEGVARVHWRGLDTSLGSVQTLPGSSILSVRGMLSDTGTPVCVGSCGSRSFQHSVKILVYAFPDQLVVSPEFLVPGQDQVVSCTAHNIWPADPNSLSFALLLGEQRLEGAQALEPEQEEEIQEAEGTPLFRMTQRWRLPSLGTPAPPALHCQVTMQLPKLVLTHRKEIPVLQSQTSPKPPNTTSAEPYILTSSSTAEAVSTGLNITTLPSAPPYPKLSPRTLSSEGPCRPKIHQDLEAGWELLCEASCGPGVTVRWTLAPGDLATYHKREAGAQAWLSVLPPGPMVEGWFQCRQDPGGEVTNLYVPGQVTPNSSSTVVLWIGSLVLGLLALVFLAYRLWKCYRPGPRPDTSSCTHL

- binding result [1]: binds
- binding result [2]: binds
B1: MAdCAM Antibody Table 1 Clone 62 (scFv)
scFv: QVQLVQSGAEVKKPGSSVKVSCKASGGTFSSYAISWVRQAPGQGLEWMGWMEPHTGNTRYAQKFQGRVTITADESTSTAYMELSSLRSEDTAVYYCAKGGFSWFDPWGQGTLVTVSSGGGGSGGGGSGGGGSGGGG[letters of about 100 residues not shown]FGQGTRLEIK
